# Among all 330,000 compounds or so, about 4,200 (1.3%) were called active. Inconclusive results, whose numbers are uncertain, are shown with a selection of clear calls. Calls follow the shape of the dose curve; as a rule, active = well fitted activation curve with a large enough effect; inconclusive = small, poorly fitted or top-dose-only effect; inactive = no such curve, though single readings can be large or run the other way. Where the call is inconclusive, the potency comes from a doubtful curve fit.
# Experiment: qHTS screen for small molecules that induce genotoxicity in human embryonic kidney (HEK293T) cells expressing luciferase-tagged ELG1; also: nearly all actives have a fitted effect of over 60% in size
# Conditions: HEK293T ELG1-luciferase reporter, luminescence, 16 h; series mostly up to 46 µM
# How it was run: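 Reporter readout depends on ELG1 protein level, which increases with genetic stress. After 16 hr compound exposure at 37 °C, luciferase activity was quantified using ONE-Glo.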
# Potency is read from the fitted curve at half-maximal effect; tags tell the direction and shape of the fitted curve.
row,Structure (SMILES),Potency
1,O=C(c1ccccc1)c1cc(-c2ccccc2)on1,active: 2.06 µM
2,COc1ccc(CC(=O)N/N=C(\C)c2ccccn2)cc1,"inconclusive: 23.1 µM [activator, single point]"
3,CCc1ccc(C2=NN(C(=O)OC)C(O)(C(F)(F)F)C2)cc1 (stereo unspecified),"inconclusive: 1.46 µM [activator, full curve]"
4,N#C/C(=C\c1ccc(OC(=O)c2ccc(Cl)s2)cc1)c1nc2ccccc2[nH]1,"inconclusive: 18.4 µM [activator, partial curve, poor fit]"
5,COc1ccccc1OCCNC(=O)c1ccc(Br)cc1,"inconclusive: 14.6 µM [activator, partial curve, poor fit]"
6,CC(=O)Nc1ccc(-c2ccc(NC(C)=O)c(O)c2)cc1O,"inconclusive: 23.1 µM [activator, partial curve, poor fit]"
7,O=C(CSCc1ccccc1)Nc1cccc(F)c1,"inconclusive: 13 µM [activator, partial curve, poor fit]"
8,O=C(Nc1cc(C(F)(F)F)ccc1Cl)c1cc2nc3c(c(C(F)(F)F)n2n1)CCCC3,active: 8.2 µM
9,CN(C)c1ccc(N=Cc2nc(-c3ccccc3)oc2OC(=O)c2cccc(Cl)c2)cc1,"inconclusive: 7.31 µM [activator, partial curve]"
10,O=C(COc1ccc2c3c(c(=O)oc2c1)CCCC3)N1C[C@H]2C[C@@H](C1)c1cccc(=O)n1C2,"inconclusive: 32.6 µM [activator, partial curve, poor fit]"
11,Nn1c(Nc2ccccc2)nc2sc3c(c2c1=O)CCC3,"inconclusive: 14.6 µM [activator, partial curve]"
12,O=C(CBr)Nc1c2c(nn1-c1ccccc1)CSC2,inactive
13,Cc1cc(C)cc(-n2ccnc2SCC(=O)O)c1,"inconclusive: 20.6 µM [activator, partial curve, poor fit]"
14,Cc1cccc(OCCC(=O)Nc2ccccc2C(N)=O)c1,inactive
15,Cc1cc(Cl)c2oc(C(=O)N3CCN(c4cccc(C)n4)CC3)c(C)c2c1,"inconclusive: 18.3 µM [activator, partial curve]"
16,C=C[C@@]1(C)CCC(/C(C)=C/C=C/C(C)(C)O)C[C@@H]1C(=C)C (stereo partly specified),inactive
17,CCOC(=O)c1c(NC(=O)COC(=O)CNC(=O)c2ccco2)sc(C)c1C,"inconclusive: 23.1 µM [activator, partial curve, poor fit]"
18,CCc1ccc(NCc2nc3ccccc3c(=O)[nH]2)cc1,active: 3.26 µM
19,CCc1cccc(NC(=O)COc2ccccc2)c1,"inconclusive: 20.6 µM [activator, partial curve, poor fit]"
20,O=C(c1cnn2cccnc12)N1CCN(c2ccccc2)CC1,"inconclusive: 23.1 µM [activator, single point]"
21,Cc1ccc(-c2noc(COC(=O)c3ccco3)n2)cc1,inactive
22,CCOC(=O)c1cc2oc(C)cc2n1CC(=O)OC1CCCCC1,"inconclusive: 20.6 µM [activator, partial curve, poor fit]"
23,CCC1=[N+](CC(=O)c2ccc(C)cc2)CCn2cccc21,"inconclusive: 10.3 µM [activator, partial curve, poor fit]"
24,CCN1CCN(Cc2ccc(NC(=O)Nc3cccs3)cc2)CC1,"inconclusive: 8.2 µM [activator, partial curve]"

row,Structure (SMILES),Potency
1,Cc1c(C(=O)NCc2ccccn2)oc2ccccc12,active: 14.6 µM
2,CSc1cccc(NS(=O)(=O)c2ccc3c(c2)CCN3C(C)=O)c1,inactive
3,CCOc1ccc(CCNC(=O)Cn2ncn3nc(-c4ccc(OC)cc4)cc3c2=O)cc1,"inconclusive: 4.61 µM [activator, full curve, poor fit]"
4,C=CCn1c2ccccc2c(=O)c2cc(C#CC[C@@H](C)O)ccc21,"inconclusive: 23.1 µM [activator, single point]"
5,Nc1c(C(=O)c2ccc(Cl)cc2)oc2ccccc12,"inconclusive: 18.4 µM [activator, partial curve, poor fit]"
6,COc1ccccc1Nc1ncnc2c1c(C)c(C)n2CCO,"inconclusive: 20.6 µM [activator, partial curve, poor fit]"
7,CC(C)Oc1cccc(C(=O)Nc2ccc(Br)cc2F)c1,"inconclusive: 1.84 µM [activator, partial curve]"
8,COc1cc2cnc(-c3ccccc3)cc2cc1OC,"inconclusive: 23.1 µM [activator, partial curve, poor fit]"
9,COc1ccccc1-c1ccc(/C=C2/C=C(C)OC2=O)o1,inactive
10,COc1cc(/C=N/N=C2/C(=O)Nc3ccccc32)ccc1O,"inconclusive: 23.1 µM [activator, single point]"
11,Cc1ccccc1OCCc1c(C)[nH]c(=S)[nH]c1=O,"inconclusive: 23.1 µM [activator, partial curve, poor fit]"
12,c1ccc2[nH]c(SCC3CCCCO3)nc2c1 (stereo unspecified),"inconclusive: 2.31 µM [activator, full curve]"
13,Cc1ccc(-n2nnc(-c3cc4ccccc4nc3Cl)n2)cc1,"inconclusive: 18.3 µM [activator, single point]"
14,O=C1CN(c2ccccc2)C(=S)N1C(=O)c1ccc(Br)cc1,active: 18.3 µM
15,O=C(/C=C/c1ccc2c(c1)OCCCO2)c1ccc2ccccc2c1O,"inconclusive: 23.1 µM [activator, single point]"
16,CC1=NOC(=O)/C1=C\c1ccc(-c2ccc(Br)cc2C(=O)O)o1,inactive
17,Oc1ccc(/C(Cc2ccc3ccccc3n2)=N\Nc2ccccc2)c(O)c1,"inconclusive: 20.6 µM [activator, partial curve, poor fit]"
18,COc1ccc(NC(=O)c2ccc(-c3ccc([N+](=O)[O-])cc3)o2)cc1,inactive
19,CC1CCN(CCc2nc3cc(NC(=O)Nc4ccccc4)ccc3n2C)CC1,"inconclusive: 14.1 µM [activator, partial curve, poor fit]"
20,Cc1cc(C)c2nc(C)cc(N/N=C/c3ccc(O)cc3)c2c1,"inconclusive: 23.1 µM [activator, single point]"
21,CCN(CC)S(=O)(=O)c1ccc(-c2nnc(SCc3nnc(-c4ccccc4)o3)o2)cc1,"inconclusive: 7.31 µM [activator, partial curve, poor fit]"
22,O=C(NCc1ccccc1)c1cccc(COc2ccc3c(c2)CCC3)c1,active: 0.651 µM
23,Cc1ccc(NC(=O)c2ccc(C(C)(C)C)cc2)cc1[N+](=O)[O-],"inconclusive: 10.3 µM [activator, partial curve]"
24,COc1ccc(/C=N\n2nnc3ccccc32)cc1,"inconclusive: 0.291 µM [activator, partial curve, poor fit]"

row,Structure (SMILES),Potency
1,Cn1c(SCC(=O)Nc2cccc(F)c2)nnc1-c1cc2ccccc2o1,"inconclusive: 16.4 µM [activator, partial curve, poor fit]"
2,COc1ccc(Nc2nc3ccc(OC)cc3s2)cc1,"inconclusive: 10.3 µM [activator, partial curve, poor fit]"
3,Nc1cccc2c1C(=O)N(C(=O)/C=C/c1cccc(F)c1)C2=O,inactive
4,O=C1CC(N2CCOCC2)C(=O)N1c1cc(Cl)cc(Cl)c1 (stereo unspecified),inactive
5,Cc1nnc(SCC(=O)c2cc(C)n(C3CC3)c2C)s1,"inconclusive: 16.4 µM [activator, partial curve]"
6,Clc1ccc(-c2cn3ccccc3n2)cc1,"inconclusive: 0.73 µM [activator, partial curve]"
7,CCOc1ccc(NC(=O)CSc2nnc(NC(=O)C3CC3)s2)cc1,"inconclusive: 29.1 µM [activator, partial curve, poor fit]"
8,O=c1c2ccccc2nnn1COc1ccc(F)cc1Cl,"inconclusive: 8.2 µM [activator, partial curve]"
9,CN1C(=O)N(C)c2cccc3cccc1c23,inactive
10,COc1ccc(-c2cc(-c3ccccc3)n[nH]2)c(O)c1,active: 8.2 µM
11,CCn1c(SCC(=O)O)nnc1-c1cc2c(C)nn(-c3ccccc3)c2s1,inactive
12,CCN(c1cccc(C)c1)S(=O)(=O)c1ccc(-c2ccc(=O)[nH]n2)o1,"inconclusive: 29.1 µM [activator, single point]"
13,O=C(CN1CCN(c2ccc(F)cc2)CC1)Nc1cc(C(F)(F)F)ccc1Cl,"inconclusive: 29.1 µM [activator, partial curve, poor fit]"
14,CC1CCc2c(sc3ncn(CCO)c(=O)c23)C1 (stereo unspecified),active: 20.6 µM
15,CC1CCC/C(=N\NS(=O)(=O)c2ccccc2)C1 (stereo unspecified),inactive
16,CCC(C)NC(=O)c1cn(-c2cccc(C)n2)cn1 (stereo unspecified),"inconclusive: 16.4 µM [activator, partial curve, poor fit]"
17,O=C(NC(=S)Nc1ccc(F)cc1)C1CCCCC1,"inconclusive: 23.1 µM [activator, partial curve, poor fit]"
18,CSc1ccccc1C(=O)C1CCCN(Cc2cnn(-c3ccccc3)c2)C1 (stereo unspecified),inactive
19,CCCOc1ccc(-c2nc(N)n[nH]2)cc1,"inconclusive: 9.2 µM [activator, partial curve, poor fit]"
20,CCN(CC)c1ccc(CNC(=O)C/C(C)=N/NC(=O)COc2ccc(C)cc2Br)cc1,inactive
21,O=C(COC(=O)c1cccnc1)c1ccc(Cl)cc1,inactive
22,O=C(/C=C/c1ccccc1Cl)Nc1ccccc1,"inconclusive: 0.651 µM [activator, full curve]"
23,O=C(c1ccc(C(=O)N2CCCc3ccccc32)s1)N1CCCc2ccccc21,inactive
